In all, about 33,000 sequences were measured (“E-score (-0.5 to 0.5)”: median about -0.021, highest 2% from about 0.32 on). The list shows a part of the results.
The sequences below were run against T1, Zap1 (UniProt P47043) (assay: PBM E-score (8-mer binding enrichment) (E-score (-0.5 to 0.5)); higher = stronger / more preferred TF binding; most listed sequences are background and not binding sites). Settings: protein concentration: 200 nM; construct: GST-full length.
T1 sequence: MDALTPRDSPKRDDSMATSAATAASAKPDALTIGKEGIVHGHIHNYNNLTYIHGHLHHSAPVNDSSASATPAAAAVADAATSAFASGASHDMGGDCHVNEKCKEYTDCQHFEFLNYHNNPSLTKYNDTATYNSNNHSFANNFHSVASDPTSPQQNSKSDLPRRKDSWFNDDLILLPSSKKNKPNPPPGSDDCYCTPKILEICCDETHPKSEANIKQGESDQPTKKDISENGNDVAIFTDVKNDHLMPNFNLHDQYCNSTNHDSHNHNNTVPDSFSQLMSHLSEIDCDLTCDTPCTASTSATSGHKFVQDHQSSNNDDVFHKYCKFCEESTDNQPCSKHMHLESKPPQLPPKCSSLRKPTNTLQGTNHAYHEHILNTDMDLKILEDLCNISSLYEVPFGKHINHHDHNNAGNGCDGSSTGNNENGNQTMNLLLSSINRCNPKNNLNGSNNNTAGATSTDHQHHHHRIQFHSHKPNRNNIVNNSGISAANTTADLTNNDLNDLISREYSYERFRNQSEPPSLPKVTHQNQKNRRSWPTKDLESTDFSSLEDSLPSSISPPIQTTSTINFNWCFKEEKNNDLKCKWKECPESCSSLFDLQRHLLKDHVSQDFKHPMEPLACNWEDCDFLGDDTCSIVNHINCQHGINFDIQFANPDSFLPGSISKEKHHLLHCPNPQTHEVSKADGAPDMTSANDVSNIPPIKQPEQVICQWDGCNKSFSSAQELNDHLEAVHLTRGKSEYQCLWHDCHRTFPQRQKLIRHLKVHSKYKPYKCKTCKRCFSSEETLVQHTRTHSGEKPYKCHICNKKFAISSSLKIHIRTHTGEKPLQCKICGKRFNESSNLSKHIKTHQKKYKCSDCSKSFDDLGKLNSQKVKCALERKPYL
Method in brief: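 Yeast transcription factors carrying a GST tag, as full-length proteins or DNA-binding domains, were produced by PURExpress in vitro transcription/translation. About 100-200 nM protein was applied to universal all-10-mer Agilent arrays, double-stranded by primer extension on fresh or once-stripped slides. Bound protein was detected with fluorescent anti-GST, and scans were normalised with masliner. The Universal PBM Analysis Suite gave each ungapped eight-base word, pooled with its reverse complement, an E-score, a modified Wilcoxon-Mann-Whitney statistic.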

Sequence | PBM E-score
CCAAACTA | 0.206
GACACTGC | 0.0132
ATCGGTTG | 0.0684
ATGAGGCG | -0.268
CTGGGGGC | -0.276
ACGATAGT | -0.0206
TGATCACA | 0.245
GGAGTTCA | -0.131
AGCAATGA | -0.118
AGCAACGG | 0.00738
CCTACGTA | -0.211
AAATGGCG | -0.0647
CTGGATCA | -0.136
CGAATTCA | -0.0127
TAGAACTA | -0.034
CGGCAATA | -0.0167
AGCCAGGC | -0.246
ATCCTACC | -0.0654
CTCGCAGA | -0.219
AGCCGGTG | -0.0008
AGGTGATC | 0.206
GAGGGTAC | 0.374
ACGTCCAT | 0.00455
ACTAATGA | 0.0348
GGAATTGA | 0.00558

Sequence | PBM E-score
ATTGAAAC | 0.115
TCCGCTCA | -0.267
CACTCGTA | -0.156
ACGTATTA | 0.168
GGGTTACA | 0.468
GCACCTTA | 0.112
CAGGATTC | -0.118
AGCGCAGG | -0.19
ACAGTCTC | -0.289
CGGCCACG | 0.113
CGATCACG | 0.116
CGCGAAGC | -0.0242
CAGCAGGC | -0.0691
CGGACTAC | -0.0551
ACTTAGAG | -0.121
GTAGTCGA | -0.0355
AGTACATG | 0.0226
GGGTGTAC | 0.105
ACCTGACA | 0.178
ACTATGTG | -0.0917
ATTACTGG | -0.164
CCCAGTCA | -0.208
CCGGATCC | -0.268
CAGCGGTC | -0.0186
ACTTCCGG | -0.0978

Sequence | PBM E-score
ACCTGAAA | 0.205
AAGGGAGC | -0.0653
AAGCATGT | -0.087
GATAAAGC | -0.0674
CAAACGAA | 0.138
AGTGGTCA | 0.197
ATGAGGTC | 0.226
AACAAACT | 0.152
CCACCCGG | -0.0636
ACTCAAAG | 0.154
CCTCGACC | -0.056
CTCAGCGA | -0.0401
AAGCGTGA | -0.0199
CCGGATGA | -0.0526
AGCAAGCC | -0.304
CTACCGAG | 0.0402
ACATGCAG | 0.0917
CTTTAATA | 0.201
AGACAAAC | -0.0937
CGTCGAAC | -0.196
CTAGTGGC | -0.0328
AATAGGCC | -0.0456
AACAGGTA | 0.226
CAGTTCCG | -0.0834
ATGAGTCC | -0.0978

Sequence | PBM E-score
ATAAGCGC | -0.101
AAATTTGG | -0.0258
GCCAGTCC | -0.145
AGAGCCAT | 0.0165
AGACCCCG | 0.251
CTGCACTC | -0.0172
CCCACGTC | -0.213
CTTGCACA | 0.0573
GACAAAGC | -0.143
AATGAGGG | -0.0229
CGCGGCAG | -0.049
AGCCCGAC | -0.0908
ACCTATCT | 0.0828
ACTGTTTC | -0.197
GACCCCTA | 0.276
GATCGAGC | -0.0441
AGCCTAAG | -0.216
TATCGATA | 0.285
ACCTGGAT | -0.057
GGAGTAGA | -0.044
ACGCGTAT | -0.0739
GTTGTCTA | -0.00927
ATCGACAG | -0.0839
CACACAGA | 0.0893
AGCTGGTC | -0.0085

Sequence | PBM E-score
AACCTATA | 0.374
CGTCTAAG | -0.0894
ACTGTCCA | -0.169
CCAAGACG | -0.202
CTTGTCGA | -0.019
CAATCTGA | -0.0798
CTTTGTCC | 0.0267
CAGCTCAC | -0.203
ACCAACAG | 0.0987
ACCCCGCC | 0.281
CCCGCCCA | 0.0532
AACCTGGT | 0.306
ACTAGCCT | -0.103
ACACCCCT | 0.218
ACCAGGAA | 0.0661
AGTGGCGC | -0.213
GCGTACCA | 0.0288
GGCAGACC | -0.192
AGGGTGTG | 0.264
GAGTCGGC | -0.329
CGTCAGAA | -0.212
CTCTTTCA | -0.0651
ACCTTCGT | 0.156
CCGATCGG | 0.13
AAATGCTT | -0.0853

Sequence | PBM E-score
AATCCGCC | -0.349
CTCCATGC | -0.229
CCCCTTCA | -0.105
ACGTTAGT | -0.0118
ATCCAGAT | -0.0341
ACGGATGA | -0.156
TCAGCACA | -0.0282
GTTCGGAA | 0.12
GGCTAGGA | -0.233
CAGATCCG | -0.116
AAATAGCC | -0.0388
CACAACTG | -0.0405
CTTGGAAC | 0.0519
GGCAGCAC | -0.298
GGTCCGGA | 0.0312
CGATGTTC | -0.08
TAATAATA | 0.217
CTATACAA | -0.0225
ATTGGTGC | -0.0663
GCGGCGCA | -0.226
GAACAAGA | 0.00965
GTTCTGAA | 0.236
CGGAGCGC | -0.253
TAGGCTCA | -0.16
CAGCACCA | -0.188

Sequence | PBM E-score
CGGGCGTA | -0.302
CGGTCTAA | 0.0414
ACTAAGTG | -0.0598
TCTTGACA | 0.0781
GAGGAGCA | -0.223
ATCGTTTC | -0.0438
GCAAAGCC | -0.306
AAAACTAG | 0.00896
CCAGAACA | -0.00016
CACGGTAC | 0.246
CATTATCC | 0.0892
AAAGATGG | -0.154
GCGTTCTA | -0.113
GAGCATGA | -0.176
GAAGTATA | -0.00274
CCTGCACC | -0.337
GACCATGA | 0.252
ACCAGACA | 0.023
CTAGTCGA | -0.13
TGAATCCA | 0.0119
CTGAACCA | -0.126
AACGACAT | 0.00264
AAAAAGTC | 0.0716
CAACGAGC | -0.156
AATCGTGC | 0.0547

Sequence | PBM E-score
GTCCAAAA | 0.0828
CTTTCAGA | 0.125
AAGGCTGC | 0.0851
TGCAGACA | -0.0367
ACTTACCT | 0.0127
CGCCAATA | 0.104
CGACGGCG | -0.272
AATGCCTA | -0.214
GAAGTAAA | 0.0987
CTAGGCGC | -0.261
TCATGGGA | 0.0596
AGTGAGAC | -0.16
CGAGTCAG | -0.103
CTATACCA | 0.0451
AGTAGTAT | 0.069
GGACGTAC | -0.189
AACTTGAT | 0.171
CACTCCAG | -0.0273
ACAGCAGC | -0.159
CAGCTGAG | -0.16
GATCCATA | -0.00324
ACTGACTC | -0.189
TGCTTGAA | 0.0363
ACCCGGTA | 0.329
GAACGCCA | -0.209

Sequence | PBM E-score
CCTCTTGC | -0.093
GAGGTTCC | 0.223
CTGGGTTA | 0.369
CTGAGGTC | -0.00051
CAAGTGAC | 0.0258
CTGGAAGC | -0.386
CATAGAGC | -0.238
AATGCACC | -0.0326
AAAGCTAT | -0.044
AATTAACC | 0.327
ATAAGAAT | 0.0532
ATACGACA | 0.0572
ACCAGTAA | 0.21
ACATTACA | 0.106
AGCAACGC | -0.00232
AAAGGCCA | 0.132
AGGCGCTC | -0.229
GATGACAA | -0.0225
AAACTGTG | 0.148

From the supplement of paper PMC3334620
